# Assay results as given in PubChem BioAssay AID504374 (National Center for Advancing Translational Sciences (NCATS), 2011).
# Screen size: about 1,500 compounds; about 100 (6.7%) were called active. Roughly 7% stayed inconclusive and do not appear here. Calls come from the whole dose curve; as a rule, active = well fitted inhibition curve with a large enough effect; inconclusive = small, poorly fitted or top-dose-only effect, or effect the other way; inactive = flat fitted curve, though single readings scatter. Some of the results follow.
# Molecular target: Runt-related transcription factor 1 (Homo sapiens) + Core-binding factor subunit beta (Homo sapiens) (UniProt Q01196+Q13951)
# Test: qHTS Assay for Compounds Blocking the Interaction Between CBF-beta and RUNX1 for the Treatment of Acute Myeloid Leukemia: Hit Validation; note: nearly all actives have a fitted effect of over 60% in size
# Settings: AlphaScreen CBFb-His/RUNX1-biotin binding; series mostly up to 59.8 µM; activity, negative = inhibition: at the top concentration
# Procedure, shortened: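 Compounds were added to a premixed CBF-beta-His/RUNX1-biotin complex (30 nM each, 20 min) for 15 min. Nickel and streptavidin AlphaScreen beads followed for 90 min at room temperature, with emission at 440 nm […].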
# % is set by controls: 0 for no effect and ±100 for the full control effect; potency is the fitted concentration of half-maximal effect.
# Sequence of UniProt Q01196 (Q01196 whole entry, looked up): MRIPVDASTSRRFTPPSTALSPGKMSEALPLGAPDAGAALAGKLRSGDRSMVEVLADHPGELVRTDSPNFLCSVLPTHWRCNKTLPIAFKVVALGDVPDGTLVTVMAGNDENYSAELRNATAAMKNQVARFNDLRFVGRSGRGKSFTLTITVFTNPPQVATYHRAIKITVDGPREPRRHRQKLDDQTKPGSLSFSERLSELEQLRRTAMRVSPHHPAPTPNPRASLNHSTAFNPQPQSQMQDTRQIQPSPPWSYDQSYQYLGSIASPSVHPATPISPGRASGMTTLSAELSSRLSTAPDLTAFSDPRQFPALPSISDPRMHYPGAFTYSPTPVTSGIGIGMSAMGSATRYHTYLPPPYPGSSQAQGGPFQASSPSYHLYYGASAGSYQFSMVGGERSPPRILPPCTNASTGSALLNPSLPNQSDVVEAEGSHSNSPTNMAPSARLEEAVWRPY
# Sequence of UniProt Q01196 (Q13951 whole entry, looked up): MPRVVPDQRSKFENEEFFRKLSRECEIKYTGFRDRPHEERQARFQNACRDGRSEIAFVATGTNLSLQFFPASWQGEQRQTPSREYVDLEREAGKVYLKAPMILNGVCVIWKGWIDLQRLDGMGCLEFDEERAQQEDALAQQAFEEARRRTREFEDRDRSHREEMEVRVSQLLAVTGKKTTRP
SMILES,"activity, negative = inhibition",Potency
O=S(=O)(NCc1c(Cl)cccc1Oc1ccccc1)c1ccc(F)cc1,inactive: 21.9%,
CC(c1ccccn1)N(CCN(C)C)C(=S)Nc1cccc(F)c1 (stereo not drawn),,active: 3.44 µM
CCOC(=O)COc1nc(C)cc(C(F)(F)F)c1C#N,inactive: -6.4%,
CC(=O)c1cc(C#N)c(SCc2ccccn2)nc1C,inactive: -7.25%,
Nc1c2ccccc2nc2ccccc12,inactive: 1.31%,
O=C(O)/C=C/c1cn(-c2ccccc2)nc1-c1ccc(-c2ccc([N+](=O)[O-])cc2)o1,inactive: -3.9%,
N/C(CSc1ccccn1)=N\OCc1c(Cl)cccc1Cl,inactive: -2.05%,
CC(=O)N1CCCC1(C(=O)O)c1ccccc1 (stereo not drawn),inactive: 0.0405%,
C=C(C)C(=O)Nc1cccnc1Oc1ccc(F)cc1,inactive: -1.27%,
CC(C)COP(=O)(c1ccc(N(C)C)cc1)C(O)c1cccnc1 (stereo not drawn),inactive: 7.21%,
COc1ccc(C(=O)/C=C/c2cn(CC(O)CN3CCN(C)CC3)c3ccccc23)cc1OC (stereo not drawn),inactive: -0.997%,
COc1ccc(/C=N/n2nnnc2N)cc1OC,inactive: -2.88%,
COC(=O)c1ccc(COc2ccc3c(c2)CCC3)o1,inactive: 6.73%,
CN1C2CCC1CC(NC(=O)c1ccc(Cl)cc1)C2 (stereo not drawn),inactive: -3.07%,
CC(=O)C1C(=O)CC(c2ccc(Cl)cc2)CC1=O (stereo not drawn),inactive: -0.716%,
CCN(CC)C(=S)SSC(=S)N(CC)CC,,active: 0.794 µM
Cc1cc2nc3ccc(=[N+](C)C)cc-3sc2cc1N,,active: 6.31 µM
CNC(=S)N1N=C2c3ccccc3CCC2C1c1ccccc1Cl (stereo not drawn),inactive: 12.3%,
Cc1cc(Cl)c2cc3ccccc3cc2n1,inactive: -0.977%,
COc1ccc(OC)c(/C=N/NC(=O)CCc2c(C)n[nH]c2C)c1,inactive: -9.64%,
CC(C)CC1C2C(=O)N(c3ccccc3)C(=O)C2ON1c1ccccc1 (stereo not drawn),inactive: 0.251%,
O=c1cc2c(=O)oc3cc(O)c(O)oc3c2c(O)c1O,,active: 0.447 µM
NC(=S)Nc1cccc(Cl)c1,inactive: 0.17%,
COc1ccc(OC)c(/C=N/NC(=O)c2cnccn2)c1,inactive: -4.1%,
Cc1ccc(/C=N/n2c(-c3cccc(Cl)c3)n[nH]c2=S)o1,inactive: -12.9%,
COc1cc(C(=O)NCC2(N3CCCCC3)CCCCC2)ccc1OCC(=O)N1CCOCC1,inactive: 5.53%,

SMILES,"activity, negative = inhibition",Potency
CNC(=O)/C(C#N)=C1\SC(Cc2ccc(F)cc2)C(=O)N1c1ccccc1C (stereo not drawn),inactive: -0.028%,
O=[N+]([O-])/C=C/c1cc2ccccc2[nH]1,inactive: -8.19%,
Cc1ccc(C2=NN(C(=O)CCC(=O)O)C(c3cccs3)C2)cc1 (stereo not drawn),inactive: 0.0494%,
O=C1Nc2c(ccc(Cl)c2Cl)C(=O)C1(F)c1ccccc1 (stereo not drawn),inactive: -21.6%,
Cc1ccccc1NC(=S)N(CCN(C)C)C(C)c1ccccn1 (stereo not drawn),,active: 4.86 µM
Nc1nc(CCl)nc(Nc2ccc3ccccc3c2)n1,inactive: 3.21%,
CC(C)(C)NC(=O)c1ccc(C(=O)NC(C)(C)C)cc1,inactive: 6.07%,
COc1ccc(NS(=O)(=O)c2ccc(Oc3c(C#N)cccc3C#N)cc2)cc1,inactive: 1.71%,
CCOC(=O)c1nnsc1N,inactive: -0.536%,
CC(C)CCN1NC2(CCC(C)CC2)NC1=S (stereo not drawn),inactive: -9.63%,
COC(=O)c1scc(C)c1NC(=O)CSc1ccc(Cl)cc1,inactive: -3.5%,
CCCc1cc(=O)oc2c(CN(CC)CC)c(O)c(Cl)cc12,inactive: -8.38%,
O=C(Nc1ccc(F)cc1)N1CCCN(c2ccc(C(F)(F)F)cn2)CC1,inactive: -12.4%,
Cc1nn2c(NCc3cccnc3)c3c(nc2c1-c1ccccc1)CCC3,inactive: 2.01%,
Nc1c(Cl)ncnc1NCC(O)CO (stereo not drawn),inactive: -6.28%,
CC(C)c1nc(C#N)c(NN)o1,inactive: -5.01%,
N=c1c2c(ncn1CCCO)Oc1cc(O)ccc1C2c1ccccc1 (stereo not drawn),inactive: 7.45%,
CCCCCNc1nc2sc3c(c2c(=O)n1-c1cccc(Cl)c1)CCN(C)C3,inactive: 8.25%,
CC1CC(C)(C)NC(=S)O1 (stereo not drawn),inactive: -3.02%,
COc1cscc1C(=O)O,inactive: 1.2%,
Cc1c(-c2ccccc2)[n+](=O)c2c(n1[O-])CCCC2,inactive: 5.18%,
NC[C@@H](O)c1ccc(O)c(O)c1,,active: 2.82 µM
Cc1cccc(C)c1NC(=S)N1CC(C)OC(C)C1 (stereo not drawn),inactive: -4.3%,
Cc1ccc(S(=O)(=O)Nc2cc(-c3ccccc3)nn2C)cc1Cl,inactive: -23.6%,
COC(=O)c1ccc(S(=O)(=O)NC(C)(C)C)n1C,inactive: 11.4%,
CN(C)c1cc(-c2ccc(C#N)cc2)oc(=O)c1Cl,inactive: -2.74%,

SMILES,"activity, negative = inhibition",Potency
Nn1c(SCc2cccc(F)c2)nnc1-c1cccnc1,inactive: -12%,
COc1ccc(C(=O)/C=C/Nc2cc(C)ccn2)cc1,inactive: -3.04%,
COCCn1c(-c2ccc(Cl)cc2)nc2oc3cc(OC)ccc3c(=O)c2c1=O,inactive: -1.81%,
O=C(CNCc1ccco1)Nc1cccc(S(=O)(=O)N2CCCCC2)c1,inactive: -6.89%,
C/C(=N\NC(=O)c1cc(-c2cccc([N+](=O)[O-])c2)n[nH]1)c1ccc(F)cc1,inactive: -6.24%,
O=C(c1ccc(Cn2ccc([N+](=O)[O-])n2)cc1)N1CCN(Cc2ccccc2)CC1,inactive: 1.19%,
N#Cc1cc(-c2ccccc2)[nH]c1-c1nccc2ccccc12,inactive: 3.89%,
Cc1cc(OCC(=O)c2ccc(C(F)(F)F)cc2)n2cnnc2n1,inactive: -0.263%,
CCn1c(O)c(C=NCc2ccccc2)sc1=S,inactive: -18.1%,
CC(C)CC(=O)NC(=S)Nc1ccc(N2CCCC2)c(Cl)c1,inactive: -8.35%,
Cc1ccccc1CSc1nnc([C@@H]2CCCN2)o1,inactive: -3.62%,
COc1ccc([N+](=O)[O-])cc1NC(=O)N(C)Cc1ccco1,inactive: -1.51%,
O=C(N/N=C/c1ccc2nccnc2c1)c1ccncc1,inactive: -7.59%,
CC(=O)Nc1nc(C)c(-c2csc(Nc3ccc(S(N)(=O)=O)cc3)n2)s1,inactive: -0.545%,
O=C(O)c1ccc(COc2ccc3c(c2)CCC3)cc1,inactive: -0.771%,
CCOC(=O)c1cn2nc(Oc3ccc(C(=O)OC)cc3)ccc2n1,inactive: 6.89%,
C=CCN=C1S/C(=C\c2ccc(N(C)C)cc2)C(=O)N1CC=C,inactive: -1.48%,
CCCCC12CN3CC(C)(CN(C1)C3c1ccc([N+](=O)[O-])o1)C2=O (stereo not drawn),inactive: -12.1%,
Cc1cc(C)nc(S/C=C/C(=O)c2ccc(F)cc2)n1,inactive: -7.34%,
CC(=O)c1cnn(-c2c(Cl)cc(Cl)cc2Cl)c1C,inactive: 3.69%,
COc1ccc(-n2c(SCC(=O)Nc3cccc4ccccc34)nc(O)cc2=O)cc1,inactive: -6.1%,
C#CCCOC(=O)Nc1ccccc1,inactive: -18.8%,
CCCCC1C2C(=O)N(c3ccc(C)cc3)C(=O)C2ON1c1ccccc1 (stereo not drawn),inactive: -2.92%,
Cc1nc(C)c(-c2ccn(C(=O)NC(C)C)n2)s1,inactive: 0.607%,
C=CN1CCCC1=O,inactive: -5.62%,
COc1cccc(/C=N/NC(=O)CCn2cnc3ccccc32)c1,inactive: -10.5%,
